Screen size: about 150,000 compounds; about 540 (0.36%) showed an effect of 50% or more. Some of the results follow.
Test system: Plasmodium falciparum
Test: Primary screen in NF54 nanoGlo assay, in single point, at 2uM, 72h; a lower Z score goes with more inhibition
Type: functional, Erythrocyte
Conditions: timepoint 72 hour

Row | SMILES | % Inhibition | Z score
1 | O=S(=O)(c1cccc2nsnc12)N1CC(Cn2ccnn2)C1 | -8% | 1.56
2 | O=C(CCc1cccnc1)Nc1ccc2c(c1)OCCO2 | -13% | 2.1
3 | CC(=O)NCC1CCN(Cc2ccccc2-c2nc(C(C)(C)C)cc(=O)[nH]2)CC1 | -15% | 1.31
4 | CCOc1nc2c(c(C)nn2-c2cccc(F)c2)c(C)c1CCC(=O)NCc1ccc(F)cc1 | 0% | -0.01
5 | Cc1ncn(CC2CCN(C(=O)c3ccc4nccnc4c3)CC2)c(=O)c1C | -8% | 1.22
6 | O=C1CCc2cc(S(=O)(=O)N3CCC(=O)Nc4cc(F)ccc43)ccc2N1 | -6% | 0.84
7 | CC(C)CC(=O)Nc1ccc(N(C)C)c(CN(Cc2ccco2)C(=O)NC(C)(C)C)c1 | 1% | -0.12
8 | O=C(NCCc1ccccc1)N1CCC2(CC1)C[C@@H](CCOCc1ccccc1)CCO2 | -1% | 0.14
9 | CCc1nc(COc2ccc(C(=O)NC[C@H]3CCO[C@@H]3C(C)(C)C)cc2)no1 | -18% | 2.49
10 | CCOC(=O)c1cnn(-c2ncnc(CC)c2F)c1C(F)F | 3% | -0.35
11 | CC[C@@H](CS(=O)(=O)NC1CCC1)OC | 4% | -0.51
12 | CC(C)(C)c1coc(CNC(=O)N[C@H]2CCO[C@@H]2c2ccccc2)n1 | -6% | 0.72
13 | CCCCn1nnnc1CN1CC[C@@]2(CCCN(C)C2)C1 | -6% | 0.66
14 | C[C@@H]1CC[C@H](C(=O)OC(C)(C)C)[C@H](C)N1C(=O)C1COCCO1 (stereo partly specified) | 26% | -3.31
15 | Cc1c(C(=O)N2CC(C)(O)C2)sc2ncc(C(=O)N3CC(C)(O)C3)cc12 | -6% | 1.05
16 | FC(F)CN1CCN(Cc2ccccc2N2CCOCC2)CC1 | -14% | 1.72
17 | CN1CC[C@@]2(CCC1=O)CN(Cc1ccco1)CCN2C | 6% | -0.97
18 | O=C1CCCN1c1ccc(S(=O)(=O)N2CCCC2)cc1 | -1% | 0.12
19 | CC(C)(C)OC(=O)N1CCN(C2CCC(NC(=O)CC3CCC3)CC2)CC1 (stereo unspecified) | 10% | -1.56
20 | CCOC(=O)c1cnn(-c2ccnc3cc(Cl)ccc23)c1CN1CCC[C@H]1CO | -10% | 1.25
21 | O=C(c1cccc(Cl)c1)N1CCC2(CCCC2)C1 | -8% | 0.99

Row | SMILES | % Inhibition | Z score
22 | Cc1cc2c(cc1C)N(CC(=O)N1CCN(c3ccc(F)cc3)CC1)C(=O)[C@H]1CCCC1=N2 | -9% | 1.4
23 | CCCCN(CC(N)=O)S(=O)(=O)c1ccc(C)c(F)c1 | -16% | 1.6
24 | Cc1n[nH]c(C)c1S(=O)(=O)N1CCN(C(=O)CCn2c(C)ccc2C)CC1 | -12% | 1.55
25 | Cc1ccc(Cc2nc(N3CCN(C(=O)c4cccc(F)c4)CC3)c3c(C)nn(-c4ccccc4)c3n2)cc1 | -2% | 0.32
26 | Cc1cc(=O)c(C(=O)NC2CCN(CC(=O)NC3CC3)CC2)cn1C | -8% | 1.66
27 | COc1ccc([C@@H]2Cn3cc(C(=O)NCc4cccnc4)nc3C(=O)N2)cc1 | -18% | 2.5
28 | CC(C)n1ccnc1CN1CCCCCCCC1=O | -5% | 0.59
29 | CN(Cc1ccsc1)C(=O)CCc1ccsc1 | -6% | 0.51
30 | COc1ccc(CN(C)C(=O)CCC(=O)Nc2nncs2)cc1O | 4% | -0.69
31 | CCc1nc(-c2ccccc2)nc(N2CCN(C(=O)c3ccc(F)cc3)CC2)c1Cc1cccc(OC)c1 | -10% | 1.66
32 | Cc1cccc(C)c1CC(=O)Nc1cccn(CC(=O)N(C)C)c1=O | -5% | 0.82
33 | O=C(Nc1ccc(F)cn1)NC1C2C3CCC(C3)C12 (stereo unspecified) | 1% | -0.12
34 | Cc1ccc(N2C[C@@H](c3noc(-c4ccncc4)n3)CC2=O)cc1 | -1% | 0.19
35 | CCOc1cccc(CNC(=O)[C@H]2CC(=O)N(CCN3CCOCC3)C2)c1 | -4% | 0.84
36 | Cn1cc(C(=O)N2CCC[C@H]2c2ccc3c(c2)OCCO3)c2ccccc21 | 4% | -0.82
37 | COc1ccc(C(=O)N2CCN(S(=O)(=O)c3ccc(F)cc3)C[C@@H]2C(=O)N[C@H]2CCCNC2=O)cc1 | -8% | 1.31
38 | CCC1(CC)CCN(C(=O)CN2CCCCCC2)C1 | -8% | 1.46
39 | Cc1cc(-c2ccccc2Cl)n(C2CCNCC2)n1 | 6% | -1.16
40 | c1ccc(-n2cc(-c3ccc(CN4CCOCC4)cc3)cn2)nc1 | -11% | 1.27
41 | CC(=O)N(C[C@H]1CCCN1S(=O)(=O)Cc1ccccc1F)C1CC1 | 0% | 0.02
42 | Cc1nn(Cc2cccc3ccccc23)c(=O)c(C#N)c1C | -15% | 2.92

Row | SMILES | % Inhibition | Z score
43 | CC(C)CCNc1ccc(C(=O)N2CCC(CN3CCCC3=O)CC2)cn1 | -16% | 3.11
44 | Cc1cc(NC(=O)CCCn2nnc3cc(S(=O)(=O)N4CCCCC4)ccc32)no1 | -2% | 0.32
45 | CC1(C2CCN(CCN3C(=O)NC4(CCCC4)C3=O)CC2)OCCO1 | -4% | 0.76
46 | COc1cccc([C@@H](O)Cn2cnc3c(N4CCOCC4)ncnc32)c1 | 5% | -0.77
47 | C[C@@H]1CN(C(=O)c2ccn(C)n2)CC[C@@]1(O)C1CCOCC1 | -10% | 1.72
48 | CNC(N)=NCC1(c2cccs2)CCCC1 | -3% | 0.35
49 | CC(C)(C)C(=O)N1CCN(c2nc3ncccc3o2)CC1 | -13% | 1.3
50 | CC1CCCC1NC(=O)N(C)CCOCC1CC1 (stereo unspecified) | -14% | 1.15
51 | CCc1nn(C)c(NC(=O)[C@H](CC)OC)c1CC | 2% | -0.19
52 | O=C(Nc1ccon1)c1cc(S(=O)(=O)N2CCCC2)cs1 | -7% | 1.19
53 | CCS(=O)(=O)N1CC(CN[C@H](c2ncc[nH]2)c2cccs2)C1 | 12% | -1.38
54 | CCC(=O)N(CC(=O)N(CCc1c[nH]c2ccccc12)Cc1ccc(Cl)cc1)CC(C)C | -4% | 0.59
55 | COC(=O)c1ccccc1NC(=O)N1CCC(Oc2ccc(Cl)cc2)CC1 | 4% | -0.7
56 | O=C(CCc1ccco1)Nc1ccnn1C1CCCCC1 | -7% | 0.72
57 | COc1ccc(NC(C)=O)cc1NC(=O)c1ccc2c(c1)CCCC2 | -19% | 3.42
58 | Cc1ccc(NC(=O)[C@@H]2Cc3ccccc3C(=O)O2)cc1OCC1CCOCC1 | -12% | 1.87
59 | CC(CCc1ccccc1F)N[C@@H](CC(N)=O)c1ccccc1 (stereo partly specified) | 2% | -0.27
60 | CNC(=O)CN1C[C@H](NC(=O)C2(COC)CCC2)[C@@H](c2ccccc2)C1 | -4% | 0.62
61 | O=C(c1ccncc1)N1C[C@H](OCc2nc3ccccc3[nH]2)[C@@H](F)C1 | 11% | -1.26
62 | O=S(=O)(CC1CC(F)(F)C1)N1CCOC[C@H]1C1CC1 | -6% | 1.09
63 | O=C(c1ccccc1OC1CC1)N1CC2CCC(C1)O2 | -6% | 0.82

Row | SMILES | % Inhibition | Z score
64 | Cc1ccccc1C(=O)N(CCN1CCOCC1)CC(=O)Nc1nc(-c2ccccc2)cn1-c1ccc(C(C)C)cc1 | -8% | 1.14
65 | CC(=O)N1CCC[C@H](NC(=O)Nc2ccccc2-c2ccccc2)C1 | -11% | 1.99
66 | O=C(CCn1cnnn1)Nc1n[nH]c(CCC2CCCC2)n1 | -10% | 1.27
67 | Cc1cc(CNC[C@H]2CC(=O)N(C3CC3)C2)cc(C)c1OC(F)F | 6% | -0.65
68 | CC(C)n1cc(C(=O)N2C[C@@H]3CC[C@H]2CN(C)C3)cn1 | -8% | 1.57
69 | COc1ccccc1N1CCN(C(=O)Cn2c(C)cc3nc4n(c(=O)c32)CCCCC4)CC1 | -13% | 1.51
70 | CCCc1[nH]ccc1C(=O)N[C@@H](CC)CC#N | -17% | 1.41
71 | CC[C@H](C)Cc1nc(CN2CCCC2=O)n(-c2cccc(C)n2)n1 | -5% | 1.01
72 | O=S(=O)(NCc1cscn1)c1ccc(C2CCCCC2)cc1 | -7% | 1.11
73 | COc1cc(OC)c(NC(=O)CN2CCC(C(=O)N3CC(C)CC(C)C3)CC2)cc1Cl (stereo unspecified) | -15% | 1.47
74 | Cc1ccc(OCC(=O)NC2(C(=O)O)CCC2)c(C)c1 | -10% | 1.33
75 | C[C@H]1CCCN(c2ccc(Cl)cc2NC(=O)CCN2CCCCC2=O)C1 | -9% | 1.18
76 | COc1ccc(N(C)CCC(=O)NC(N)=O)cc1OC | 3% | -0.44
77 | C#Cc1cccc(N(C)S(=O)(=O)N2CCOC(C)(C)C2)c1 | -6% | 0.48
78 | Cc1cccc(Cn2c(=O)c3nscc3n(Cc3c(C)noc3C)c2=O)c1 | -1% | 0.11
79 | O=C(Cc1ccccc1)N1CCN(C(=O)c2cnn3ccccc23)CC1 | -5% | 0.82
80 | COc1cccc(-c2noc(-c3cnc(OC)nc3C)n2)c1 | -8% | 0.93
81 | Cn1cc([C@H](NCc2cnc3cnccn23)c2ccc(F)cc2)cn1 | -20% | 3.79
82 | COC[C@@H](O)CCNC(=O)Nc1ccc(Br)c(C)c1F | 5% | -0.93
83 | CC(CC#N)NC(=O)C1(F)CN(C(=O)OC(C)(C)C)CC12COC2 (stereo unspecified) | -1% | 0.13

Reference: ChEMBL document CHEMBL4888484, “Replenishing the malaria drug discovery pipeline: Screening and hit evaluation of the MMV Hit Generation Library 1 (HGL1) against asexual blood stage Plasmodium falciparum ,using a nano luciferase reporter read-out” (2022)
